# Experimental data reported in the supplement of paper PMC10126150.
# Values marked as one replicate rest on one cluster of the flow cell; about a third of the high ones do not repeat.
# Test system: ATP
# Test: switch fluorescence ratio, 500 uM ATP over buffer (Cy3 cluster intensity, sum of 5 cycles each) (fold (ratio)); higher = stronger signal-on switching upon ATP binding; sequences stand for … in TCGTCGGCAGCGTCAGATGTGTATAAGAGACAGTTTTTTTTTTTTTTTTTTTTTTTTT…TC
# Conditions: aptamer strand: ATP DNA aptamer (quencher-CACCTGGGGGAGTATTGCGGAGGAAGG + anchor), 100 nM annealed; ATP concentration: 500 uM; one replicate
# In short: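 Five buffer/ATP imaging cycles were run on Cy3-labelled switching-strand clusters on a modified Illumina MiSeq flow-cell, with NaOH stripping and re-annealing between cycles. In each cycle, clusters annealed to 100 nM quencher-labelled ATP aptamer were imaged in selection buffer, then after 15 min with 500 uM ATP at 22 °C. Per cluster, the fluorescence ratio is summed target-cycle over summed buffer-cycle Cy3 intensity, averaged per switch-domain sequence. Only clusters within 100-1000 RFU were kept.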
# 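Also: ATP exposure 15 min at 22 °C before imaging.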
row,Sequence,switch fluorescence ratio
1,CTAATACCG,1.13
2,TCCTGCTATC,3.22
3,TGAGAGGCG,1.11
4,ACGTATTCTA,1.09
5,GCACCTATGC,1.03
6,TAAACTGATG,0.993
7,AGCCTTCGAT,1.08
8,CCGTGGTCCT,0.998
9,GATTCATAG,0.992
10,AGATGTTTCG,1.02
11,AGCTTGTGTA,0.975
12,ACAATGGATC,1.02
13,CACTGGGTG,1.33
14,CAACGTGTTT,0.993
15,GGACGAATAT,1.01
16,ACCGAGCCCC,1.03
17,GTATGTCTCT,0.999
18,GTTTATTCG,1.04
19,GGGGCCACTA,0.963
20,CATCGGAGTT,1
21,CTCGTAACCG,1.02
22,AGCTGACGA,1.05
23,TAACCGAAGA,1.05
24,CTAAGAGGGT,0.987
25,TCTGTGCTTA,1.06

row,Sequence,switch fluorescence ratio
1,AAACGACAGG,1.04
2,CACGGCCGCT,1.06
3,TTTTAACTGC,1.02
4,GCGTAGGGGA,0.992
5,AGGAGTATCC,0.972
6,CGACTAGTCG,0.955
7,GCTCTCCGTC,1.32
8,GTTCTATTTT,1
9,TATATGAGGA,0.995
10,TATGAGTTAT,1.01
11,TGAGCTAT,1.34
12,CTAACTACAT,1.03
13,TTTTCCCGAT,1.02
14,TAGGAGTTGG,0.995
15,GCTTGACGGA,0.987
16,GGGAAGTTTA,0.951
17,ATAAGAAGCT,1.03
18,GGATGTGACG,1.09
19,GCCAGTTCC,1.08
20,AAAAACTTCA,1.14
21,CATTGGTTCT,0.978
22,ATAGATCGCG,0.992
23,GCCAATGAGT,0.988
24,TCCAGTGGGT,1.01
25,AGACAGAGAC,1.01

row,Sequence,switch fluorescence ratio
1,TCGCTGTCTA,0.998
2,AGACACGAG,1.02
3,ATCAAGAGA,0.979
4,AAAGCTACAA,1.17
5,TCCGTCAGTG,1.15
6,AGCTGGGGAC,1.02
7,GGTGCTAACA,0.971
8,TTTTCTCAGG,1.05
9,GAGCTTGTCT,1.04
10,CCGTAGTGGG,1.96
11,TATTCCATTG,0.98
12,AGGTTTATAC,1
13,TGAGTCGCAG,1.04
14,CTGTAGGTCA,1.03
15,AGAAGGTCGT,1.04
16,GAGTCTGTTA,1.03
17,GAAGGCCAAG,0.999
18,ATGAGGTATA,0.999
19,ACCTCCACTT,1.28
20,TATCATAAAT,0.996
21,GAGATCACGT,0.976
22,TCTAGCTCAT,1.01
23,CTTTCCTGA,1.02
24,CTGTGAGTAC,0.991
25,GCTTATTCTC,0.956

row,Sequence,switch fluorescence ratio
1,ACGCGACACA,1.13
2,GCAACCTCGC,1.15
3,CTTTGGAGGA,0.987
4,ATTGTTACCG,0.983
5,GATGCCATGC,1.24
6,TTAGACCGTC,0.969
7,TTGTTTTGT,1.01
8,ATCGAATTAG,0.94
9,CTGCGCATA,6.2
10,TTAACCTTAA,1.16
11,AGGGAGGACC,0.987
12,CCTTCGGAGG,1.13
13,AAACTTGTCG,1.02
14,CCACCCAGAT,1.28
15,GATTGGGCTA,0.982
16,CTTGTCGGTG,0.973
17,CTTGTTATAT,1.05
18,TAAATGGGTC,0.974
19,TCATGTGCTA,1.03
20,TTCCGCTGCT,1.11
21,TACGTAGCGG,1.26
22,TAGGTCATCA,1.01
23,TAGCATTGTT,0.982
24,GTGTAAGGT,1.01
25,AGCCCAATAG,2.46
